No constants are given. Whether binding was seen depends on the method and setting. Some entries that bind do so weakly or less than the wild type.

Protein sequences, listed by entry. Tags and fused reporters are not part of them. Lines headed by an entry give the natural chain unless they say otherwise; changes in a name come on top. Chains listed by the source or under a name are the forms on record and can include a tag or linker.
Lysyl oxidase propeptide (LOX-PP) (Pro24Leu) (P28300, form named): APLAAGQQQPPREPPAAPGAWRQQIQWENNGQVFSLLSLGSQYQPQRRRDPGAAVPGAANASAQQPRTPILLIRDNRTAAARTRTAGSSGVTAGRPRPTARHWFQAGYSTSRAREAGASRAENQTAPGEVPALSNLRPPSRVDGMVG
UniProt P02452: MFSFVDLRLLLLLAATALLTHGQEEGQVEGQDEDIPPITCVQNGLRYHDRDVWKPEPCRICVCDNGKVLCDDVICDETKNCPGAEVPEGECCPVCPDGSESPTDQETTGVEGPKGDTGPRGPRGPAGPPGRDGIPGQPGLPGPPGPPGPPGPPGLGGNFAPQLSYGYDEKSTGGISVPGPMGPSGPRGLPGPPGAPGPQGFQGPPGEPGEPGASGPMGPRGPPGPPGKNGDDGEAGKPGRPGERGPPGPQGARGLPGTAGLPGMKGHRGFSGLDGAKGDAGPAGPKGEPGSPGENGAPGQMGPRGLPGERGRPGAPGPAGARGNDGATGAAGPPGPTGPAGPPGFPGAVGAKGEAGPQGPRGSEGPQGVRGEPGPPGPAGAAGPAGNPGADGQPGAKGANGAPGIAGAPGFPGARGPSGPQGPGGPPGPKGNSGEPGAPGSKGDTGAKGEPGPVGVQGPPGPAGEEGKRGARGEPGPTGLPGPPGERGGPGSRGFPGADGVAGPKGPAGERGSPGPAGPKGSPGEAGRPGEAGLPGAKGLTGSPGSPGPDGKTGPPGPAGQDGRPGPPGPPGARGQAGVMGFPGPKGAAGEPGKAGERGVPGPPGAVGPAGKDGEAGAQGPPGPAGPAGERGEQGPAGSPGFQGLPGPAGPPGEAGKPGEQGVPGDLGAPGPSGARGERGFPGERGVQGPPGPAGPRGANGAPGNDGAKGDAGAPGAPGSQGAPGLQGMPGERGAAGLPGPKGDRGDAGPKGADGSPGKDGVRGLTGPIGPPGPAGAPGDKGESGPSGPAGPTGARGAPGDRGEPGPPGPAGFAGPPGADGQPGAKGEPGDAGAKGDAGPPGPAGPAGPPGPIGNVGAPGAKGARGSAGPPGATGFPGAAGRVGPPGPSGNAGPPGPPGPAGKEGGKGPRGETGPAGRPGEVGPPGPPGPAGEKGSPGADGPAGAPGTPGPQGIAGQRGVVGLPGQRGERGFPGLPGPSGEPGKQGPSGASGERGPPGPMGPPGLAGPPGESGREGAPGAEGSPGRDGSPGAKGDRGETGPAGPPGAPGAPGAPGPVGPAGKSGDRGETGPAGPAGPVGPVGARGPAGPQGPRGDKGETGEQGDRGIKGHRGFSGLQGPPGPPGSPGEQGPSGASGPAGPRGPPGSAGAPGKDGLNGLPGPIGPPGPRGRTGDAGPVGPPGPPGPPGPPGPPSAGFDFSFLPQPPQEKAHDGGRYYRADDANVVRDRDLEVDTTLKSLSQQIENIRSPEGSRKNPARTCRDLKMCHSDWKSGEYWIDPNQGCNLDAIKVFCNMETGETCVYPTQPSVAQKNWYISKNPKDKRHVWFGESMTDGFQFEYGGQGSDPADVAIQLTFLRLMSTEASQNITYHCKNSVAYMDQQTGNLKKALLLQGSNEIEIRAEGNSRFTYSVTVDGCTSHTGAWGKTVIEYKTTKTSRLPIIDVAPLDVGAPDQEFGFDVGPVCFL

For this assay, the target named is Lysyl oxidase propeptide (LOX-PP) (Pro24Leu) (human) (UniProt P28300). Nature of the assay: SPR; Biacore T100 or T200: LOX-PP as ligand, covalently immobilised on a CM5 chip via amino groups; partner injected as analyte at 30 µl/min for 3 min; HBS pH 7.4 with 0.05% P20, 25 °C; both purified. Background: SPR reads the build-up and loss of mass on a sensor chip optically.

As to “Collagen I (from UniProt P02452 162-1218; P08123 80-1119) (complex)”, the binding result is reported as “binds”.

Values taken from article PMC6078952.
